Data on 57 sequences can be found in the supplement of paper PMC11417369.

Some of the results follow.

This experiment deals with PfAP2-HC AP2 domain (GST-tagged). Put plainly: gcPBM binding intensity (ln(normalized median fluorescence intensity)); higher = stronger DNA binding. The procedure, abridged:
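DNA-binding domains from P. falciparum, fused to GST and produced in E. coli, were put on an Agilent 4 × 180k double-stranded probe array for 1 h in 1× PBS holding 1% milk, 0.2 mg/ml BSA, 0.5% salmon testes DNA and 0.03% Triton X-100. Probes were primer-extended, 36 bp long and drawn from intergenic genomic regions, with negative controls included. After Alexa488 anti-GST antibody detection and a 488 nm scan, binding intensity was set as the highest Masliner-normalised natural-log median intensity across replicate spots of either probe orientation.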
In the case of “CAAATATATATTTATTGTACATATTGTTTATATGGT [XGTACX_site5246]”, the “gcPBM binding intensity (ln)” value was found to be 9.68.
For ATAATAACTTGTAAGGTGCATTTTATGTTTTCTTAA, the “gcPBM binding intensity (ln)” value was found to be 9.56.
For “AGAAATAATATTATTCAAGTATTTATTTAATTTTCA [GTGCAC_negctrl_site475]” the value was 9.42; for “AAATTATAGAATCATTGTACTTTTTTTTTTTTTTTT [XGTACX_site1280]”, 9.45; for “TATGCTTCAAAATTGTGTACATATATAATATATTAT [XGTACX_site6760]”, 9.76.
The value for “TTTTTTTATATTATACGCACTAATATATATATATAT [XGTACX_negctrl_site40]” was 9.73; that for “TAACACTTTTTTTTTCGTACATATATTATATATATA [XGTACX_site5470]” was 9.65.
Take “AAATAGACATAAAAAGGTACACAAATTGTGTATTAA [XGTACX_site527]”: the “gcPBM binding intensity (ln)” value came to 9.93.
Turning to “TTTAATCAATGATTTAATGAAAAAAGCAAAAAAAAA [GTGCAC_negctrl_site213]”, the “gcPBM binding intensity (ln)” value came to 9.46.
Take “CGTTTGGTACACGTAGTGTTTTCGTTTGAATGTACC [GTGCAC_negctrl_site201]”: the “gcPBM binding intensity (ln)” value was 9.67.
For “TTTAATTTTCCCTTCACACATAATATATATCTGTAT [CACACA_site5370]” the value was 9.78.
Regarding “GACATATATAGCAATCGTACATATATTATAAAAGGT [XGTACX_site6891]”, the “gcPBM binding intensity (ln)” value was found to be 9.83.
For “AAAAGGAACAGACACACACACATATATAAATATGTA [CACACA_site7656]” the value was 10.5; for “TATTAATTTATTTGTTGTACGTAAATATGCTTGTTT [XGTACX_site6591]”, 9.75; for “AAAAAAAAAAAAAATTGTACCCAAATATTTTTGTAG [XGTACX_site8303]”, 9.42.
For “TTTTTATTAGGACATGCATACAAAATTAAAAAAAAT [TGCATGCA_site258]”, the “gcPBM binding intensity (ln)” value worked out at 9.5.
For the sequence ATATATATATTTAAGGTGCGATTTTGTTATATTTAA, the “gcPBM binding intensity (ln)” value was found to be 9.6.
For “TTATTAAAATATTAAAGTACAAAAAAAATAAATAAA [XGTACX_site6507]”, the “gcPBM binding intensity (ln)” value was determined as 9.58.
As to “AATTATATTAATATATAATAAAATAGGATGTTATTT [XGTACX_negctrl_site309]”, the “gcPBM binding intensity (ln)” value amounted to 9.59.
The value for “GTATATAATTTATGTGCACACACTCCTATTTTTAGC [CACACA_site49]” was 10.1.
Consider “CTTATTTTATGTTATACACACAAAGAAAAAAAATAA [CACACA_site2165]”, for which the “gcPBM binding intensity (ln)” value is 9.63.
The value for “TCAAATGTATATAATTGTACTTATCCTTTTCATTTT [XGTACX_site4879]” was 9.75.
The value for “AAAAATTAGAAACACACACACATATATATATATATT [CACACA_site1042]” was 10.3.
For “TTTTAAGTTTTTGAATGTACGTAATTTGTAAATTCT [XGTACX_site2448]” the value was 9.6; for “TATAAAATACTGTATCGATGGGGGAGGGCGCAGGGG [TGCATGCA_negctrl_site250]”, 10.9.
As for “AAAAAAAAAAAAAAAAAAAAAAAAAAAGATTATGAG [CACACA_negctrl_site1088]”, the “gcPBM binding intensity (ln)” value worked out at 9.21.
As to “AAGAACAAACAAAATAGTACAATATATATATATATA [XGTACX_site4258]”, the “gcPBM binding intensity (ln)” value amounted to 10.4.
The value for “TTTAAATATTTTATAGCATGCTACCAATATGTATAT [TGCATGCA_site291]” was 9.96; that for “AACTATAATTAAAGGATGCACTTGAAGGCATTTCAA [GTGCAC_site9689]” was 9.66; that for “TATTCATAACAATGATGTACATATATTTTTTTTTTC [XGTACX_site5619]” was 9.56.
On to “CATATATAGATATATACACACATATAGATTTTCTTT [CACACA_site6797]”, for which the “gcPBM binding intensity (ln)” value was found to be 9.8.
For “TTACTTGTTTATTTTTTTTTTTTTTTTTTTTTTGTT [TGCATGCA_negctrl_site103]” the value was 9.29; for “TAATGGAGAAAATAATGTACTTAGATATTTGTTCTA [XGTACX_site6312]”, 9.47.
For “TATTCTTATTATTACACACACAATTATATTTACCCC [CACACA_site6381]”, the “gcPBM binding intensity (ln)” value was determined as 10.3.
Consider “TATATATATATAATAGCATGCTATATTATATATATA [TGCATGCA_site886]”, for which the “gcPBM binding intensity (ln)” value was 9.45.
As for “TTAACATAAATTGTGTCATTTTTTTTTTTTTTTTTA [CACACA_negctrl_site1221]”, the “gcPBM binding intensity (ln)” value amounted to 9.49.
For “TATTTTTTAATTGTTTCACACATTATTTTTTACATA [CACACA_site6078]” the value was 9.96.
For “TACACCCAGAAATGCACACACATATATATATATATA [CACACA_site5289]” the value was 10.5.
The value for “ATGAACATGTGACAATGTACATTTATATCTTAAGAA [XGTACX_site4960]” was 9.72; that for “ATAATATATATATATATGTATGTATATATGTATGTA [GTGCAC_negctrl_site575]” was 9.93; that for “ATCAGGCAAAATTTTTGTACATATATATTTTATTTT [XGTACX_site1245]” was 9.8.
On to TTATAAATGTGCGTAGTGCATAAACAAAAAAAAAAT, for which the “gcPBM binding intensity (ln)” value turned out to be 9.84.
The value for “AGATTTCAAGGTAATAGATCAATTTTAATTTGTAAA [CACACA_negctrl_site514]” was 9.39; that for “TTAAAATGAAGAAGTGCACACATATATATATTTATA [CACACA_site8063]” was 9.95; that for “TTAACACATTTTATGTGTACTCATATGATTTAAAAT [XGTACX_site7516]” was 9.55.
On to “AATTTTTTTTTCTTTTGTACGTAAATATGTGTAGGC [XGTACX_site215]”, for which the “gcPBM binding intensity (ln)” value stood at 9.44.
In the case of “CTAATAAAAAAAAAAAGTACATATGACAATATAAAG [XGTACX_site1598]”, the “gcPBM binding intensity (ln)” value was determined as 9.76.
Consider “TATATATTAGTGTTGACACACACAAAAAAAAAAAAA [CACACA_site8392]”, for which the “gcPBM binding intensity (ln)” value worked out at 9.92.
As for “TATAAACAGACGAAAACACACATATGTAGATATATA [CACACA_site6371]”, the “gcPBM binding intensity (ln)” value is 10.1.
For “TGTAGCATTTAATTCACACATAAAAAATGTATCCAT [CACACA_site4986]” the value was 9.52; for “AAAAAAAGTAAAAAGTGTACTTAATATATATATATA [XGTACX_site838]”, 9.73.
For “TATATGTGATAACACGCACACAAATGTATATAATTT [CACACA_site2593]” the value was 10.1; for “AAAAAAAAAAAACATACACACATTGAACTTTTATAT [CACACA_site3250]”, 9.85.
For “ATAAAATAAAAATTCTGTACAGAATTAAAAAAATAT [XGTACX_site6961]” the value was 9.85.
With “TATTCATGCATATACACACACATATATATATATTTT [CACACA_site3955]”, the “gcPBM binding intensity (ln)” value is 10.2.
For “AAAAAAAAATTAAACATACACACGTTACTATTTTTA [CACACA_site1687]” the value was 9.76.
For “ATCATAATTTATTATACACACAATACGTGACCTATT [CACACA_site6977]” the value was 9.93.
